Source: PubChem BioAssay AID485364 (National Center for Advancing Translational Sciences (NCATS), 2010)
Several values for one entry are separate records, joined by “and”; a condition that tells them apart may be missing. Equal values may be shown once. Hit rate of the full screen: of about 360,000 compounds, about 11,000 (3.1%) were called active. This list was built around the results that the source calls inconclusive (neither active nor inactive); the mix of calls is not that of the screen. Calls come from the whole dose curve; as a rule, active = well fitted inhibition curve with a large enough effect; inconclusive = small, poorly fitted or top-dose-only effect; inactive = no such curve, though single readings can be large or run the other way. Potencies beside an inconclusive call are fits to weak or partial responses and may not hold up.
% is set by controls: 0 for no effect and ±100 for the full control effect; potency is the fitted concentration of half-maximal effect; tags give direction and shape of the fitted curve.
Note: nearly all actives have a fitted effect of over 60% in size.

Each compound was assayed against Schistosoma mansoni thioredoxin glutathione reductase (TGR) (UniProt Q962Y6) (assay: qHTS Assay for the Inhibitors of Schistosoma Mansoni Peroxiredoxins). Conditions: purified TGR, DTNB reduction, TNB absorbance 405 nm; activity change, negative = inhibition: at 114 µM (top of the series).
Summary of the method: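 Kinetic colorimetric format: TGR-catalysed, NADPH-driven DTNB reduction monitored via TNB absorbance. Enzyme dispensed at 20 nM; compound exposure 15 min at room temperature before reaction start.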
In the case of `C#CCNC(=O)C1=C[C@H](c2ccc(Br)cc2)C[C@H](OCCCCO)O1`, the Potency is reported as active: 15.8 µM. With `C=CCOC(=O)/C(=C/c1ccco1)NC(=O)/C=C/c1ccccc1` the Potency was active: 39.8 µM. `Cc1ccc(S(=O)(=O)c2nc(-c3ccco3)oc2SC(C)C)cc1` was tested, and the Potency was inconclusive: 44.7 µM [inhibitor, partial curve] and inconclusive: 50.1 µM [inhibitor, partial curve]. `COC(=O)c1ccc(COc2ccc(/C=N/O)cc2)o1` was tested, and the Potency was inconclusive: 50.1 µM [inhibitor, partial curve]. `COC(=O)Cc1[nH]nc2c1C(C1C=CCCC1)C(C#N)=C(N)O2` (stereo not given) was tested, and the “activity change, negative = inhibition” value was inactive: 1.91%. For `C=C1N(C)c2cc([N+](=O)[O-])c(N)cc2C1(C)C`, the Potency was active: 20 µM. With `Oc1ccc(O)c2c1C1c3ccccc3C2c2ccccc21` the Potency was active: 5.01 µM. For `COc1cc(/C=C2/C(=O)NN(c3ccc(F)cc3)C2=O)cc([N+](=O)[O-])c1O`, the “activity change, negative = inhibition” value was inactive: -12.7%. With `N#C/C(=C/c1ccc(N2CCCCC2)o1)C(=O)Nc1ccc(Cl)cc1` the Potency was inconclusive: 11.2 µM [inhibitor, partial curve]. `O=C(CNc1ccc2c(c1)OCO2)N/N=C\c1cn(Cc2ccc(F)cc2)c2ccccc12` was tested, and the Potency was inconclusive: 50.1 µM [inhibitor, partial curve, poor fit]. In the case of `COc1cc(-c2nc(C(F)(F)F)c(OC)o2)cc(OC)c1OC`, the Potency is reported as inconclusive: 50.1 µM [inhibitor, partial curve]. With `CCC(=O)NCc1ccc2[nH]c(C)cc2c1` the Potency was active: 28.2 µM. In the case of `COc1ccc(C(=O)CSc2nnc(-c3ccco3)n2C)cc1`, the Potency is reported as inconclusive: 39.8 µM [inhibitor, single point]. In the case of `Cn1c2ccccc2c2cnn(CC(=O)O)c(=O)c21`, the Potency is reported as inconclusive: 70.8 µM [inhibitor, partial curve, poor fit]. In the case of `NC(=S)NNc1cc(Cl)cc(Cl)c1`, the Potency is reported as inconclusive: 50.1 µM [inhibitor, partial curve]. In the case of `CC(Sc1nc(-c2ccco2)nc2c1c(=O)n(C)c(=O)n2C)C(=O)O` (stereo not given), the Potency is reported as active: 39.8 µM. For `Cc1ccc(CS(=O)Cc2ccc(C(=O)NCC(C)c3ccccc3)o2)cc1` (stereo not given), the Potency was inconclusive: 50.1 µM [inhibitor, partial curve]. `Cc1c(Cl)cccc1-n1c(SCC(=O)NCc2ccccc2)nc2n[nH]c(C)c2c1=N` was tested, and the “activity change, negative = inhibition” value was inactive: -4.38%. For `N#CC1(C#N)C(c2ccccc2)OC23CCCCC2C1(C#N)C(=N)O3` (stereo not given), the Potency was inconclusive: 50.1 µM [inhibitor, partial curve]. For `O=C(Nc1ccc2c(c1)OCO2)C1CCN(C(=O)c2ccc(Cl)cc2)CC1`, the “activity change, negative = inhibition” value was inactive: 6.38%. For `O=C(Nc1ccccc1)C1=C(O)CC(c2ccoc2)CC1=Nc1ccccc1` (stereo not given), the Potency was inconclusive: 44.7 µM [inhibitor, partial curve]. For `CC(=O)N1CCN(C(=O)Nc2cccc(C(F)(F)F)c2)CC1`, the Potency was inconclusive: 39.8 µM [inhibitor, single point]. With `O=C(CSc1nnc(-c2cccs2)o1)N1CCCCC1` the “activity change, negative = inhibition” value was inactive: -2.84%. `OCCNc1ncnc2c1c(-c1ccccc1)c(-c1ccccc1)n2Cc1ccco1` was tested, and the Potency was inconclusive: 44.7 µM [inhibitor, partial curve]. `CC1CN(c2cc(=O)n(-c3cccc(Br)c3)c(=O)[nH]2)CC(C)O1` (stereo not given) was tested, and the Potency was inconclusive: 20 µM [inhibitor, single point]. With `O=C(O)/C=C\C(=O)Nc1cc(O)ccc1[N+](=O)[O-]` the Potency was inconclusive: 44.7 µM [inhibitor, partial curve]. With `O=C1NC2(CCCC2)C(=O)N1CC(=O)N(Cc1ccccc1)c1ccccc1` the Potency was inconclusive: 44.7 µM [inhibitor, partial curve]. With `CCOc1ccc(-n2c(C)cc(/C=N/NC(=O)C(N)=O)c2C)cc1` the Potency was inconclusive: 70.8 µM [inhibitor, partial curve, poor fit]. In the case of `O=C(CC(Nc1ccc(F)cc1)C(=O)O)c1ccccc1` (stereo not given), the Potency is reported as active: 1.78 µM. `CCCCCN1CC(O)=C(c2ccccc2)C1=N` was tested, and the Potency was inconclusive: 50.1 µM [inhibitor, partial curve]. With `O=C(Nc1cccc2ncccc12)c1ccccc1[N+](=O)[O-]` the Potency was inconclusive: 39.8 µM [inhibitor, single point]. In the case of `C=CCNc1nnc(C)c2ccccc12`, the Potency is reported as inconclusive: 89.1 µM [inhibitor, single point]. With `N#C/C(=C\c1cccs1)C(=O)NCc1ccco1` the “activity change, negative = inhibition” value was inactive: -10.3%. For `O=C(Nc1nnc(Cc2ccccc2)s1)C1CCC1`, the Potency was inconclusive: 89.1 µM [inhibitor, single point]. With `CC1CCN(CCCNC(=O)c2ccc3c(Cl)c4c(nc3c2)CCCC4)CC1` the Potency was inconclusive: 39.8 µM [inhibitor, partial curve]. In the case of `CC1=C(C(=O)Nc2cccc(C(F)(F)F)c2)C2(CCCCC2)OC1=O`, the “activity change, negative = inhibition” value is reported as inactive: -14.6%. In the case of `COc1ccccc1NC(=O)N(Cc1ccco1)Cc1cc2ccc(C)c(C)c2[nH]c1=O`, the Potency is reported as inconclusive: 56.2 µM [inhibitor, partial curve]. With `COC(=O)c1ccc2nc(-c3ccc4c(c3)OCO4)cn2c1` the “activity change, negative = inhibition” value was inactive: 6.65%. With `CCOc1ccc(S(=O)(=O)N/N=C2/CCCC(=O)C2)cc1` the Potency was inconclusive: 25.1 µM [inhibitor, full curve]. With `COc1c(Br)cc([N+](=O)[O-])c(OC)c1C(=O)NC(=O)Nc1c(Cl)cccc1Cl` the Potency was inconclusive: 31.6 µM [inhibitor, single point]. In the case of `Cc1ccc(NC(=S)N/N=C/c2ccc([N+](=O)[O-])s2)cc1`, the Potency is reported as inconclusive: 39.8 µM [inhibitor, partial curve]. For `C#CCOCCOCCOCCNc1nc(N2CCN(C(=O)C([C@@H](C)CC)n3cc(C(N)Cc4ccc(O)cc4)nn3)CC2)nc(N2CCN(C(=O)[C@H](CCC(=O)O)n3cc(C(N)CO)nn3)CC2)n1` (stereo not given in full), the Potency was active: 39.8 µM. `CC(=O)OCn1ncc(N2CCOCC2)c(Br)c1=O` was tested, and the Potency was inconclusive: 35.5 µM [inhibitor, partial curve]. For `Oc1ccc(-c2c(C3=CCCCC3)sc3ccccc23)cc1`, the Potency was active: 79.4 µM. For `O=C(Nc1ccc(OC(F)(F)F)cc1)c1ccc2nccnc2c1`, the “activity change, negative = inhibition” value was inactive: 19.6%. `COC(=O)C1=C(c2ccc(C(C)=O)cc2)C[C@@H]2CC[C@H]1N2C(=O)NCc1ccco1` was tested, and the Potency was inconclusive: 17.8 µM [inhibitor, single point]. In the case of `CCOc1ccc(C(=O)Nc2ccc(NC(=S)NC(=O)CC)cc2)cc1Cl`, the “activity change, negative = inhibition” value is reported as inactive: 6.82%. With `CCCCN=C1NC(=O)C(CC(=O)NCCc2ccc(OC)cc2)S1` (stereo not given) the Potency was inconclusive: 50.1 µM [inhibitor, partial curve]. For `COc1ccc(-c2cc(C(F)(F)F)n3ncc(C(=O)O)c3n2)cc1OC`, the “activity change, negative = inhibition” value was inactive: 9.18%. `CC(C)(C)c1cc(NC(=O)c2cccnc2)no1` was tested, and the “activity change, negative = inhibition” value was inactive: 1.66%. With `CCOC(=O)N1CCC(N2CCCC(C(=O)c3ccccc3OC)C2)CC1` (stereo not given) the Potency was inconclusive: 28.2 µM [inhibitor, full curve, poor fit]. With `N#CC1=C(N)C(C#N)(C#N)C(c2cccnc2)C2COCC=C12` (stereo not given) the Potency was inconclusive: 79.4 µM [inhibitor, partial curve, poor fit]. `Cc1nc(C)c(-c2ccc(SCC(=O)Nc3ccc(C)c(Cl)c3)nn2)s1` was tested, and the Potency was inconclusive: 89.1 µM [inhibitor, partial curve, poor fit]. In the case of `CC(=O)CC1OC(=O)C(Br)=C1NCc1ccccc1` (stereo not given), the Potency is reported as active: 3.55 µM. `O=C(NCCN1CCOCC1)c1cc2c(=O)n3ccccc3nc2n1Cc1ccccc1` was tested, and the Potency was inconclusive: 89.1 µM [inhibitor, single point]. `CC1CCc2nc(NC(=O)C3CCCO3)sc2C1` (stereo not given) was tested, and the Potency was inconclusive: 50.1 µM [inhibitor, partial curve]. With `O=c1c2cc3c(nc2ncn1Cc1ccc(Cl)cc1)CCCC3` the Potency was inconclusive: 89.1 µM [inhibitor, single point]. With `COC(=O)c1ccc(C23CC4(C2)[C@H](CN(Cc2cccnc2)[C@@H]4c2ccccc2)C3c2ccccc2)cc1` (stereo not given in full) the Potency was inconclusive: 50.1 µM [inhibitor, partial curve]. For `Cc1ccc2c(c1C)NC(C(=O)O)C1CC=CC21` (stereo not given), the Potency was active: 2.51 µM. `CCCCOc1ccc(/C=C2/Sc3ccccc3C2=O)cc1` was tested, and the “activity change, negative = inhibition” value was inactive: -0.0656%. With `CCN(CC)CCCNC(=O)c1cn(CC)c2cc(N3CCN(C(=O)c4ccco4)CC3)c(F)cc2c1=O` the Potency was inconclusive: 50.1 µM [inhibitor, partial curve]. In the case of `COc1ccc(-c2c(-c3ccc(OCC(=O)NN)cc3O)n[nH]c2C)cc1`, the “activity change, negative = inhibition” value is reported as inactive: 1.97%. For `COc1cc(-c2c(C#N)c(N)nc3c2CCCC3)ccc1O`, the Potency was active: 20 µM. In the case of `CCc1nc2c(sc3nc4c(cc32)COC(C)(C)C4)c(=O)n1Cc1ccco1`, the Potency is reported as inconclusive: 2.82 µM [inhibitor, full curve, poor fit]. For `CCC1(c2ccc(F)cc2)NC(=O)N(CC(=O)Nc2ccc(C)c(S(=O)(=O)N3CCOCC3)c2)C1=O` (stereo not given), the Potency was inconclusive: 0.0251 µM [inhibitor, full curve, poor fit]. `CCCCNC(=S)N(CCN(C)C)Cc1cc2cc3c(cc2[nH]c1=O)OCCO3` was tested, and the Potency was inconclusive: 14.1 µM [inhibitor, full curve, poor fit]. `CN/N=C/c1ccc(C#N)cc1` was tested, and the Potency was inconclusive: 44.7 µM [inhibitor, partial curve]. With `N#CCCSc1ncnc2c1oc1ccccc12` the Potency was inconclusive: 50.1 µM [inhibitor, partial curve]. `CC(=O)Nc1ccc(-n2c(CCC(=O)O)ccc2-c2ccc(C)cc2)cc1` was tested, and the Potency was active: 14.1 µM. In the case of `CCCCCC(=O)N1CCN(S(=O)(=O)c2ccc3c(c2)OCCO3)CC1`, the “activity change, negative = inhibition” value is reported as inactive: 5.75%.
